Screen size: about 310,000 compounds; about 2,200 (0.71%) showed an effect of 50% or more. Effects have a minus sign here. The list shows a part of the results.
The compounds below were run against human ether-à-go-go-related gene (hERG) potassium channel (human, UniProt Q12809) (assay: primary screen, population patch clamp on CHO cells stably expressing hERG).
Sequence of human ether-à-go-go-related gene (hERG) potassium channel (Q12809 whole entry, looked up): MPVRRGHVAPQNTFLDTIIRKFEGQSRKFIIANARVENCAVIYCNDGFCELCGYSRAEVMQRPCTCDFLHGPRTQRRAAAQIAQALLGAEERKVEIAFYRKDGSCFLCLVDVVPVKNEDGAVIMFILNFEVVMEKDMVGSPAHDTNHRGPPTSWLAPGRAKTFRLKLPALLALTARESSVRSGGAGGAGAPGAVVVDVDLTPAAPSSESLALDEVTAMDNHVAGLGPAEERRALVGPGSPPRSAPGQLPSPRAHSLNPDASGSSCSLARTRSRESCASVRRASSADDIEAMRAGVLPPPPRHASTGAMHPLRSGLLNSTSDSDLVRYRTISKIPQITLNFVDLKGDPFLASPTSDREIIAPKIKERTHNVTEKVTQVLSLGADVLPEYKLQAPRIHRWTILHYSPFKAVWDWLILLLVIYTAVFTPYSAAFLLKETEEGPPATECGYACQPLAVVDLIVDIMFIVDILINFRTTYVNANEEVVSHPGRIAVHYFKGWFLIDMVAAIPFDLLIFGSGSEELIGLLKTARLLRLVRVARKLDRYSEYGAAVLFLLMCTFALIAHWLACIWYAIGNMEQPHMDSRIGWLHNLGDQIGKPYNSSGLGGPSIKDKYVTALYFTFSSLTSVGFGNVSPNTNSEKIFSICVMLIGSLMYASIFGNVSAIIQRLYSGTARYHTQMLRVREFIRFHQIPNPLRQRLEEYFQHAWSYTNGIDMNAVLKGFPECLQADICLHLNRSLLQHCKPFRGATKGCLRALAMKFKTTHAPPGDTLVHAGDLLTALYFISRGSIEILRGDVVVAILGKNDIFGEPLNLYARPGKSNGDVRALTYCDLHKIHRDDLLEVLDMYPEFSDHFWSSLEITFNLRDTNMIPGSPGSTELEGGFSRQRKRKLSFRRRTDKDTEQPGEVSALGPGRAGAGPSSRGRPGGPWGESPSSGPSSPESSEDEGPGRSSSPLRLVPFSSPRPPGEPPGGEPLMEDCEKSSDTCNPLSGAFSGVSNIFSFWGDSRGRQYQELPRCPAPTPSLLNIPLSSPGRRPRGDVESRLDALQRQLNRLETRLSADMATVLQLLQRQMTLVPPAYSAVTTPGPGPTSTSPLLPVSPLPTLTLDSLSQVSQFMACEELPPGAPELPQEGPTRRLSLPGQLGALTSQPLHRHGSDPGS

SMILES	hERG current change (%, negative = inhibition) at 1uM
COc1ccc(CCNC(=O)/C=C/c2ccc(OC)c(S(=O)(=O)N3CCOCC3)c2)cc1	1.69%
Clc1nssc1=Nc1nncs1	11.8%
Cc1cccc(N2C(=O)CC(SC(=Nc3ccccc3)Nc3ccccc3)C2=O)c1 (stereo not drawn)	3.93%
Cc1onc(-c2c(F)cccc2Cl)c1C(=O)NCc1ccccc1	8.18%
O=C(c1ccc(=O)[nH]n1)N1CCc2ccccc2C1	6.05%
COc1ccccc1CNC(=O)CCC(=O)N1CCOc2ccc(C)cc21	-1.63%
O=C(CCN1C(=O)C2C3C=CC(C3)C2C1=O)N1CCN(c2ccc(F)cc2)CC1 (stereo not drawn)	-5.37%
CCNC(=S)Nc1ccc(Cc2ccncc2)cc1	-6.12%
Cc1cc(C)cc(OCC(=O)Nc2cccc(C(=O)O)c2)c1	19.6%
Cc1ccc(S(=O)(=O)N2CCN(CC(O)c3ccccc3)CC2)cc1 (stereo not drawn)	0.165%
Cc1occc1-c1nnc(SCC(=O)N(C)CCC#N)n1N	8.91%
CCC(C)[C@H](NC(=O)OC(C)(C)C)C(=O)NCC1CCC(C(=O)N[C@@H](Cc2ccccc2)C(=O)O)CC1 (stereo partly drawn)	13.6%
CCOC(=O)CSc1nnc(-c2ccc(NS(=O)(=O)c3ccc(C)cc3)cc2)o1	-9.7%
COc1ccc(C2CC(c3cccs3)=NN2C(=O)COC(=O)c2cncc(Br)c2)cc1OC (stereo not drawn)	-0.627%
CCCSc1nc2c(c(=O)[nH]c(=O)n2C)n1C	6.05%
CCC(CC)c1nnc(NC(=O)c2ccc(N3CCCC3=O)cc2)s1	1.43%
CN(CC(=O)Nc1cccc(F)c1)C(=O)c1csc2c1CCCC2	18.7%
Cc1ccc(NC(=O)NC2CC(=O)N(c3ccc4c(c3)OCCO4)C2)cc1F (stereo not drawn)	4.84%
N#CCCN(C(=O)COC(=O)C1=NNC(=O)CC1)c1ccccc1	9.89%

SMILES	hERG current change (%, negative = inhibition) at 1uM
COc1ccc(S(=O)(=O)Nc2ccc(S(=O)(=O)N3CCOCC3)cc2)cc1	3.14%
CCOc1cc(CN2CCSCC2)ccc1O	5.37%
c1ccc(OCCOc2cccc3cccnc23)cc1	10.7%
CC(C)(C)NS(=O)(=O)c1ccc(NC(=O)C2CCCO2)cc1 (stereo not drawn)	11.8%
CN1C(=O)CC(N2CCN(c3ccc(Cl)cc3)CC2)C1=O (stereo not drawn)	-1.86%
Cc1ccc(OCC(=O)Nc2ccc(C)c(S(=O)(=O)N3CCCCCC3)c2)c([N+](=O)[O-])n1	-7.57%
CCOc1ccc(CCNC(=O)c2cc(S(=O)(=O)N3CCOCC3)ccc2C)cc1OCC	11.8%
COc1ccc2c(c1)C(C)=CC(C)(C)N2S(=O)(=O)c1ccc(C)cc1	10.6%
COc1ccc(OC)c(C2CC(=O)OC3=C2C(=O)CC(C)(C)C3)c1 (stereo not drawn)	7.47%
O=S(=O)(c1ccc(F)cc1)N1CC=C(c2ccccc2)CC1	10.8%
COc1ccc(NC(=O)c2ccc(CNS(=O)(=O)c3cccc(OC)c3)cc2)cc1	0.0207%
COC(=O)c1cccc(NC(=O)CSc2nnc(-c3ccco3)o2)c1	15.6%
Cc1cc(C(=O)CN2c3cccc4cccc(c34)S2(=O)=O)c(C)n1C	5.47%
O=C(CCNS(=O)(=O)c1ccccc1F)NCc1ccc2c(c1)OCO2	9.88%
Cc1ccc2cc(NC(=O)c3ccc(C(C)(C)C)cc3)ccc2n1	16.1%
COc1ccc(CCNc2cc(N3CCN(C(=O)c4ccccc4OC)CC3)ccc2[N+](=O)[O-])cc1OC	9.91%
COc1ccc(CCNc2c([N+](=O)[O-])ncn2C)cc1OC	15.3%
CCOC(=O)Cc1csc(SCC(=O)c2c(N)n(CC(C)C)c(=O)n(C)c2=O)n1	5.54%
Cc1ccc(S(=O)(=O)NNC(=O)CCC(=O)Nc2ccc(C)cc2C)cc1	8.19%

SMILES	hERG current change (%, negative = inhibition) at 1uM
COc1ccc(C(=O)CN(C(=O)c2ccc(Cl)cc2)N2C(=O)c3ccccc3C2=O)cc1	-2.12%
c1ccc(Cc2nnc3sc(-c4ccccn4)nn23)cc1	-0.519%
O=C(NC(=S)NCC1CCCO1)c1ccccc1[N+](=O)[O-] (stereo not drawn)	19.8%
CC(=O)Nc1cccc(N2C(=O)CC(Cc3ccccc3)C2=O)c1 (stereo not drawn)	2.44%
COc1ccc(C(=O)NNC(=O)CN(C)S(=O)(=O)c2ccc(Cl)cc2)c(OC)c1OC	-28.3%
Cc1cccn2c(CNCCc3ccccn3)c(C(=O)N3CCOCC3)nc12	6.02%
COC(=O)c1c(C)cc(O)c(C)c1O	13.1%
COC(=O)c1sccc1NC(=O)c1ccc(C)cc1	15%
Cc1ccc(C(=O)NCCc2cc3ccc(C)c(C)c3[nH]c2=O)cc1[N+](=O)[O-]	-8.17%
O=C1CCCC(O)=C1C=Nc1ccc(O)cc1	14.1%
COc1ccc2c(c1)cc1c(=O)n(CC(=O)NCCCN3CCOCC3)nc(C)n12	12.7%
Cl.N=c1ccn(Cc2ccccc2Cl)cc1	16.8%
Cc1[nH]c2ccccc2c1CN1CCN(c2ccccn2)CC1	-5.15%
CCC(Oc1ccccc1)C(=O)Nc1cc(C(F)(F)F)ccc1N1CCOCC1 (stereo not drawn)	17.8%
Cc1[nH]ccc(=O)c1OCC(=O)O	14.5%
CCOc1ccc(S(=O)(=O)N2CCC(C(=O)OC(C)C(=O)NC3CCCCC3C)CC2)cc1 (stereo not drawn)	2.81%
COC(=O)C1=C(NC(=O)c2ccc(Br)cc2)CCS1	8.99%
Cc1ccc(NC(=O)CNc2ccc(N3CCOCC3)cc2)cc1S(=O)(=O)N(C)C	-3.53%
O=C(O)c1ccccc1Nc1ccccc1	10.3%
